From article PMC2928299
Results are given in words; binding and its absence hold for the method and conditions named. Binding seen in cells or lysates may run through a third protein. Some binding calls cover weakened binding; strength is not graded here. Tags and fused reporters may be left off the sequences shown.

Amino acid sequences for entries named in this document (tags omitted). A change or cut given only in a name is not applied to a line headed by its entry.
UniProt P60766: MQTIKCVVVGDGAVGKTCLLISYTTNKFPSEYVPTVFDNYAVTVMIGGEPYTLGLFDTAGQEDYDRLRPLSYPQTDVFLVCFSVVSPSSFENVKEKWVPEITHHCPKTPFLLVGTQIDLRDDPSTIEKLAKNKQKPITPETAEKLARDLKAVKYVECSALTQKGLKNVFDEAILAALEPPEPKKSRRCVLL
UniProt Q9QUI0: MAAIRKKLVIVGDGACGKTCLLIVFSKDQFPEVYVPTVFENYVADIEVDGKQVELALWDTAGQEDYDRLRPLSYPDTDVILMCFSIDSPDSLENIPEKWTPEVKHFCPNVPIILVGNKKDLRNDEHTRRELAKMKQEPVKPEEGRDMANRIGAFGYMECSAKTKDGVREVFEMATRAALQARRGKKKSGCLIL

T1: SBP-Flag Rnd3 (mouse) (UniProt P61588)
T1 sequence: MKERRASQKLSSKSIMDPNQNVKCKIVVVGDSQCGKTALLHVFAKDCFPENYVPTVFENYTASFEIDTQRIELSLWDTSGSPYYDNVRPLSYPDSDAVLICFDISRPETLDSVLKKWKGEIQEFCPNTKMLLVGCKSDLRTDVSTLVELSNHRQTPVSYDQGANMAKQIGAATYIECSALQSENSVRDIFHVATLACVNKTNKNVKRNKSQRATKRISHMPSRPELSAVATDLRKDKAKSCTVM

T2: SBP-Flag Rnd2 (mouse) (UniProt Q9QYM5)
T2 sequence: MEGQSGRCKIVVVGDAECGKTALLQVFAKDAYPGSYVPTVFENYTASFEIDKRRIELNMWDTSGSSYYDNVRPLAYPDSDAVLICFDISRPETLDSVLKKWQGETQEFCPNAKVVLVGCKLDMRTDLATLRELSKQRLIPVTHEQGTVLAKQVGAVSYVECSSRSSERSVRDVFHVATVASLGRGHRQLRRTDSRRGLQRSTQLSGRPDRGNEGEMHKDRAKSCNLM

T3: SBP-Flag Rnd1 (mouse) (UniProt Q8BLR7)
T3 sequence: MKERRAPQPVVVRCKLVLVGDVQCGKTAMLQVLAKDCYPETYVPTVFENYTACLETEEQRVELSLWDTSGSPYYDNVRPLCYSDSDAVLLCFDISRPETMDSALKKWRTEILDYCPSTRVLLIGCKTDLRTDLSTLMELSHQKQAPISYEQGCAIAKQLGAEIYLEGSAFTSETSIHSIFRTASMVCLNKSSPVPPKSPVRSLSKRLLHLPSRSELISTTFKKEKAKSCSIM


Experiments:
Assay in all cases: pull-down; streptavidin (SBP) pull-down from lysates of co-transfected 293T cells, SBP-Flag GTPase as bait; beads 1 h at 4°C, 3 washes, elution with 2 mM biotin; immunoblot for Flag
SBP-Flag Rnd3 (mouse) = target: T1, SBP-Flag Rnd3 (mouse)
SBP-Flag Rnd2 (mouse) = target: T2, SBP-Flag Rnd2 (mouse)
SBP-Flag Rnd1 (mouse) = target: T3, SBP-Flag Rnd1 (mouse)
[1] = target: SBP-Flag Cdc42(G12V) (mouse) (UniProt P60766)
[2] = target: SBP-Flag RhoA (WT) (mouse) (UniProt Q9QUI0)
[3] = target: SBP-Flag RhoA(G14V) (mouse) (UniProt Q9QUI0)

| binding (SBP-Flag Rnd3 (mouse)) | binding (SBP-Flag Rnd2 (mouse)) | binding (SBP-Flag Rnd1 (mouse)) | binding [1] | binding [2] | binding [3] | Binder |
| --- | --- | --- | --- | --- | --- | --- |
| no binding | no binding | no binding | – | – | – | Flag-MyoGEF (protein, UniProt Q8R0J1 1-787) MQAFGPPNEGPLQGLVASRIETYGGRHQTSAHSTAGNLFPRGGPGVDPSRRRLQHYVPFAKGSGQTRGMSPLVLREPDPEKRHGSYFGVGPPHSPKLKEVTRAHELEIRLHTFSMFGMPRLPPEDRRHWEIGEGGDSALTMEKSWKELVLEHKEMNRQLCHQQEALWELLTTELIYLRKLKIMTDLLAAGLLNLQRVGLLTEVSAETLFGNVPNLIRAHRRFWEEVLQPILEDTRTSGQPLDPVSLQNGFLTFGQRFQPYVQYCLRVKQTMAYAREQQDTNPLFHTFVQWCEKHKRSGRQTLGDLLIKPHQRITKYPLLLQAVRKRSPEPRAQEALNAMIEAVESFLRHINGQVRQGEEQESLMAVAQRIGPYEVLEPSSEEVEKNLRPFSTLDLMTPVLGVAPEYTRQLLLEGPVRVKEGREGKMDVYLFLFSDVLLVTKPQRKADRAKVIRPPLMLEKLVCRPLRDPNSFLLIHLTEFQCVSSALTVHCPSSTERARWLEKTQHAQTTLQKLKGEQYIQQKRELLALYRNQGTESPSTRPSTPSPSPEDSQSSAEGRTLEFAIIPRLVVTEDTDEDTPSMPDDASDSGYGTLIPSSPKDSHSPLNRLRSKALRRDPRLTFSTLELRDVPLRPQPPDPQAPQRRSAPELPEGILRGGSLPRRAPPIWSEEEDETLASGNVVVETLHRAQRRSPLPHSPTHTDSAGESPWESSDEDEGLLSPELRPRSLREDMLREIREELANQRIDGASEPEPGNGKPRRLTLAQLQRMRVPHIIQLDTPLSTSEV |
| binds | binds weakly | binds weakly | – | – | – | Flag-Syx, full length (protein, UniProt Q66T02 1-1073) MGTGPGVSGRRAAARPSSELPSPDSQLLWVGGHAHSSDSQVCHHADCQQLHHRGPLNLCETCDSKFHSTLHYDGHVRFDLPPQGSVLARNVSTRSCPPRTSPAADLEEEEEGCTDGKGDRKSAGLKISKKKARRRHTDDPSKECFTLKFDLNVDIETEIVPAMKKKSLGEVLLPVFERKGIALGKVDIYLDQSNTPLSLTFEAYRFGGHYLRVKAKPGDEGKVEQGVKDSKSLSLPALRPSGAGPPVSERVDPQSRRESSLDILAPGRRRKNMSEFLGEAGIPGHEPPAPSSCSLPVGSSGGTSSGINESWKNRAASRFSGFFSSSPSTSAFSREVDKMEQLESKLHAYSLFGLPRMPRRLRFDHDSWEEEEEDDEEDEESSGLRLEDSWRELTDGHEKLTRRQCHQQEAVWELLHTEVSYIRKLRVITNLFLCCLLNLQESGLLCEVEAERLFSNIPEIAKLHRGLWGSVMVPVLEKARRTRALLQPSDFLKGFKMFGSLFKPYIRYCMEEEGCMEYMRGLLRDNDLFRAYVTWAEKHQQCQRLKLSDMLAKPHQRLTKYPLLLKSVLRKTDDPRTKEAIVTMISSVERFIHHVNTCMRQRQERQRLAGVVSRIDAYEVVEGSNDEVDKLLKEFLHLDLTAPMPGTSPEETRQLLLEGSLRMKEGKDSKMDVYCFLFTDLLLVTKAVKKAERTKVIRPPLLVDKIVCRELRDPGSFLLIYLNEFHSAVGAYTFQASSQALCRSWVDTIYNAQNQLQQLRAQLSAQEHPGSQHLQSLEEEEDEQEEEGEESGTSAASSPTILRKSSNSLDSEHCTSDGSTETLAMVVVEPGATLSSPEFEGGPVSSQSDESSLSNTASSVTPTSELLPLGPVDGRSCSMDSAYGTLSPTSLQDFVAPHPVVEPAPVPQTPSPQPSPRLRRRTPVQLLPRPPRLLKSKSEASLLQLLSGTPAARGVPPAPSRSLSELCLISVAPGVRTQRPLQEGGPGWNGPGMCDPCHGPQLSESENRPSHMTGGPADSARRRCREMPSGTMSRVQSEPPSGVSAQHRKLTLAQLYRIRTTLLLNSTLTASEV |
| binds | – | binds | no binding | binds | binds | Flag-Syx(1–800) (domain or fragment, UniProt Q66T02-1 1-800) MGTGPGVSGRRAAARPSSELPSPDSQLLWVGGHAHSSDSQVCHHADCQQLHHRGPLNLCETCDSKFHSTLHYDGHVRFDLPPQGSVLARNVSTRSCPPRTSPAADLEEEEEGCTDGKGDRKSAGLKISKKKARRRHTDDPSKECFTLKFDLNVDIETEIVPAMKKKSLGEVLLPVFERKGIALGKVDIYLDQSNTPLSLTFEAYRFGGHYLRVKAKPGDEGKVEQGVKDSKSLSLPALRPSGAGPPVSERVDPQSRRESSLDILAPGRRRKNMSEFLGEAGIPGHEPPAPSSCSLPVGSSGGTSSGINESWKNRAASRFSGFFSSSPSTSAFSREVDKMEQLESKLHAYSLFGLPRMPRRLRFDHDSWEEEEEDDEEDEESSGLRLEDSWRELTDGHEKLTRRQCHQQEAVWELLHTEVSYIRKLRVITNLFLCCLLNLQESGLLCEVEAERLFSNIPEIAKLHRGLWGSVMVPVLEKARRTRALLQPSDFLKGFKMFGSLFKPYIRYCMEEEGCMEYMRGLLRDNDLFRAYVTWAEKHQQCQRLKLSDMLAKPHQRLTKYPLLLKSVLRKTDDPRTKEAIVTMISSVERFIHHVNTCMRQRQERQRLAGVVSRIDAYEVVEGSNDEVDKLLKEFLHLDLTAPMPGTSPEETRQLLLEGSLRMKEGKDSKMDVYCFLFTDLLLVTKAVKKAERTKVIRPPLLVDKIVCRELRDPGSFLLIYLNEFHSAVGAYTFQASSQALCRSWVDTIYNAQNQLQQLRAQLSAQEHPGSQHLQSLEEEEDEQEEEGEESGTSAASSPT |
| no binding | – | – | – | – | – | Flag-Syx(1–800) R178E/K179D (domain or fragment, UniProt Q66T02-1 1-800) MGTGPGVSGRRAAARPSSELPSPDSQLLWVGGHAHSSDSQVCHHADCQQLHHRGPLNLCETCDSKFHSTLHYDGHVRFDLPPQGSVLARNVSTRSCPPRTSPAADLEEEEEGCTDGKGDRKSAGLKISKKKARRRHTDDPSKECFTLKFDLNVDIETEIVPAMKKKSLGEVLLPVFEEDGIALGKVDIYLDQSNTPLSLTFEAYRFGGHYLRVKAKPGDEGKVEQGVKDSKSLSLPALRPSGAGPPVSERVDPQSRRESSLDILAPGRRRKNMSEFLGEAGIPGHEPPAPSSCSLPVGSSGGTSSGINESWKNRAASRFSGFFSSSPSTSAFSREVDKMEQLESKLHAYSLFGLPRMPRRLRFDHDSWEEEEEDDEEDEESSGLRLEDSWRELTDGHEKLTRRQCHQQEAVWELLHTEVSYIRKLRVITNLFLCCLLNLQESGLLCEVEAERLFSNIPEIAKLHRGLWGSVMVPVLEKARRTRALLQPSDFLKGFKMFGSLFKPYIRYCMEEEGCMEYMRGLLRDNDLFRAYVTWAEKHQQCQRLKLSDMLAKPHQRLTKYPLLLKSVLRKTDDPRTKEAIVTMISSVERFIHHVNTCMRQRQERQRLAGVVSRIDAYEVVEGSNDEVDKLLKEFLHLDLTAPMPGTSPEETRQLLLEGSLRMKEGKDSKMDVYCFLFTDLLLVTKAVKKAERTKVIRPPLLVDKIVCRELRDPGSFLLIYLNEFHSAVGAYTFQASSQALCRSWVDTIYNAQNQLQQLRAQLSAQEHPGSQHLQSLEEEEDEQEEEGEESGTSAASSPT |
